According to PubChem BioAssay AID1347073 (National Center for Advancing Translational Sciences (NCATS), 2019):
The whole screen tested about 45,000 compounds, of which about 200 (0.44%) were called active. Inconclusive results (about 7%) are left out. Calls come from the whole dose curve; as a rule, active = well fitted activation curve with a large enough effect; inconclusive = small, poorly fitted or top-dose-only effect; inactive = no such curve, though single readings can be large or run the other way. The list shows a part of the results.

Assay: qHTS of TDP-43 Inhibitors: NCGC Sytravon Library Screen; note: 0% is about no effect; nearly all actives have a fitted effect of over 55% in size
Conditions: yeast TDP-43 toxicity rescue, BacTiter-Glo growth, 24 h; series mostly up to 46.1 µM; growth rescue (activation): at the top concentration
In short: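 TDP-43-expressing yeast, pregrown in raffinose, seeded at OD600 0.02 in galactose medium with compound for 24 hr at 30 deg C. Growth read by BacTiter-Glo luminescence, so rescue of toxicity appears as activation.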

Structure (SMILES)	growth rescue (activation)
CC(O)c1nc2ccccc2n1CCCOc1ccccc1 (stereo not drawn)	inactive: -0.899%
CCNc1c(NC(=O)c2cccs2)c(=O)oc2ccccc12	inactive: -0.877%
N#Cc1cc(C(=O)c2cc(Br)ccc2O)cn(Cc2ccccc2)c1=O	inactive: 17.8%
CCn1c(C)nc2cc(C(=O)NNS(=O)(=O)c3ccccc3F)ccc21	inactive: 16.2%
O=C(N/N=C/c1ccc([N+](=O)[O-])o1)c1cc(-c2ccc(-c3ccccc3)cc2)nc2ccccc12	inactive: -9.21%
Cc1ccc(C)c(CN2C(=O)c3ccccc3S(=O)c3ccc(C(=O)N4CCN(c5ccccn5)CC4)cc32)c1 (stereo not drawn)	inactive: -1.45%
CCN(CC)S(=O)(=O)c1ccc(NC2CCN(Cc3ccccc3)CC2)nc1	inactive: 5.76%
CCC(=O)Nc1cccc(-c2cc3ccccc3oc2=O)c1	inactive: 4.55%
CCC1CCCCN1C(=O)c1cc(S(=O)(=O)N2CCOCC2)ccc1C (stereo not drawn)	inactive: -2.51%
O=C1CSC2(N1)C1CC3CC(C1)CC2C3 (stereo not drawn)	inactive: 5.13%
COc1ccccc1-n1cnnc1SCC(=O)N1CCOCC1	inactive: 0.0478%
CCCOc1ccc(F)cc1-c1cc(C(=O)NCc2ccc(C(F)(F)F)cc2)[nH]n1	inactive: -0.0838%
CCOC(=O)c1[nH]c(C)c(C(=O)NCCC2=CCCCC2)c1C	inactive: 19.3%
Cc1ccc2c(c1)nnn2C1CCN(CC(=O)NCc2ccccc2F)CC1	inactive: -2.71%
O=C(O)c1cc([N+](=O)[O-])ccc1NCCO	inactive: 11.7%
ClC(Cl)(Cl)c1nc(N/N=C/c2ccncc2)c2ccccc2n1	inactive: 17.7%
O=C(NCc1ccccc1Cl)c1csc([C@H]2C[C@H](O)[C@@H](CO)O2)n1	inactive: 11.8%
Cc1noc(C)c1C(=O)N1CCC1(C)C(=O)NS(=O)(=O)c1ccc(Br)cc1 (stereo not drawn)	inactive: 9.26%
CC(Oc1ccc(Cl)cc1Cl)C(=O)Nc1cccc(O)c1 (stereo not drawn)	inactive: 4.24%
Cc1cc(N2CCCC2=O)ccc1S(=O)(=O)NCCOc1ccccc1	inactive: 4.06%
COc1ccc(-c2nnc3c4ccccc4c(-c4ccccc4)nn23)cc1	inactive: 10.4%
COc1cc(/C=C2\N=C(c3c(-c4ccccc4)noc3C)OC2=O)ccc1OC(C)=O	inactive: 2.92%
Cc1ccc(NC(=O)Cn2c(-c3ccc(F)cc3)cnc2SCC(=O)Nc2c(C)cccc2C)cc1	inactive: -20%
CCSc1nnc(NC(=O)CCNC(=O)c2ccccc2Cl)s1	inactive: -4.34%
CSc1ccc(CN2C(=O)C(C)Sc3ccc(C(C)=O)cc32)cc1 (stereo not drawn)	inactive: 19.2%
O=C(CN(C(=O)c1csnn1)c1ccc(F)c(Cl)c1)NC1CCCC1	inactive: 0.327%
CC(=O)c1cccc(NC(=O)c2ccc(C)o2)c1	inactive: -15.2%

Structure (SMILES)	growth rescue (activation)
Cc1ccccc1-c1cc2nc(NCc3cccnc3)n(C)c(=O)c2s1	inactive: -0.363%
CCN1CCN(c2cc(C)c3cc(NC(=O)c4cncc(Br)c4)ccc3n2)CC1	inactive: 2.91%
CCOc1ccc(Nc2nc(N)nc(CN3CCN(c4ccccc4F)CC3)n2)cc1	inactive: -3.36%
Cc1ccc(NC(=O)CCNC(=O)Cn2cnc3ccccc3c2=O)cc1F	inactive: 11.1%
O=c1[nH][nH]c(-c2ccccc2)c1C=Nc1ccccc1	inactive: 13.8%
N#Cc1cccc(NC(=O)C2SC(=Nc3ccccc3)C(C(=O)N3CCOCC3)=C2N)c1 (stereo not drawn)	inactive: 7.56%
Cc1ccn2c(c1)nc(=S)n2C(=O)c1ccccc1	inactive: -1.29%
CCOc1nonc1C(=N)/C(C(C)=O)=C(\C)O	inactive: 9.43%
CC(C)Oc1cc(F)ccc1-c1cc(C(=O)Nc2ccc(C(C)C)cc2)[nH]n1	inactive: 7.02%
COc1cc(/C=N/Nc2ccccc2)ccc1O	inactive: 2.14%
Cc1c(NS(=O)(=O)c2cc(C(=O)N3CCCC(C)C3)ccc2Cl)c(=O)n(-c2ccccc2)n1C (stereo not drawn)	inactive: 9.07%
c1ccc2oc(NC3=NCN(C4CCCCC4)CN3)nc2c1	inactive: 6%
O=C(CNC(=O)c1cccnc1)N/N=C/c1ccc(O)cc1O	inactive: 8.9%
COc1ccc(S(=O)(=O)N(C)CC(=O)NCC2CCCO2)cc1OC (stereo not drawn)	inactive: -1.1%
CC(C)(C)c1cnnn1-c1cccc([N+](=O)[O-])c1	inactive: -7.55%
O=C(NCc1cccc(F)c1)c1cccc(OC2CCN(C(=O)C3CC3)CC2)c1	inactive: 15.5%
O=c1c2cccnc2[nH]c(=S)n1CCCN1CCN(c2ccccc2F)CC1	inactive: 6.56%
Cc1ccc(S(=O)(=O)NC(=NCC(=O)O)c2ccccc2)cc1	inactive: -26.1%
C=CCn1c(Cc2ccccc2)nnc1SCc1nc2ccccc2c(=O)[nH]1	inactive: -13.8%
Cc1nc2ccc(NC(=O)c3ccc(=O)[nH]c3)cc2s1	inactive: -3.28%
COC(=O)c1cc(NS(=O)(=O)c2ccc(Cl)c(N3C(=O)c4ccc(C(=O)O)cc4C3=O)c2)cc(C(=O)OC)c1	inactive: 10.1%
CC(C)CCNC(=O)c1nn(Cc2ccccc2)c(=O)c2ccccc12	inactive: -8.84%
COc1cc(-c2nnc(CSc3nnc(N)s3)o2)cc(OC)c1OC	inactive: 4.84%
COc1ccc(CNC(=O)Cn2nnc(-c3ccc(NC(=O)C4CCCCC4)cc3)n2)cc1	inactive: 14.1%
CC(C)NC(=O)c1ccc2c(c1)N(Cc1ccccc1)C(=O)C(C)(C)O2	inactive: -5.25%
COc1cc(/C=C/C(=O)OCC(=O)NC(=O)NCc2ccccc2)ccc1OCC#N	inactive: -8.33%
